# Test results as given in PubChem BioAssay AID1240 (Sanford-Burnham Center for Chemical Genomics, 2008).
# Screen size: about 50,000 compounds; about 800 (1.6%) showed an effect of 50% or more. The list shows a part of the results.
# Biological target: Bcl-2-like protein 10 (Homo sapiens) (UniProt Q9HD36)
# Assay: Phenotype converters, Bcl-B/TR3 peptide binding displacement, primary biochemical FP (AID 1240);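 note: 0% = Bcl-B with tracer peptide and DMSO and 100% = tracer peptide lacking Bcl-B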
# Conditions: GST-Bcl-B / FITC-TR3 peptide fluorescence polarization; stronger effect = higher value; compound at 3.75 mg/L
# Sequence of UniProt Q9HD36 (Q9HD36 whole entry, looked up): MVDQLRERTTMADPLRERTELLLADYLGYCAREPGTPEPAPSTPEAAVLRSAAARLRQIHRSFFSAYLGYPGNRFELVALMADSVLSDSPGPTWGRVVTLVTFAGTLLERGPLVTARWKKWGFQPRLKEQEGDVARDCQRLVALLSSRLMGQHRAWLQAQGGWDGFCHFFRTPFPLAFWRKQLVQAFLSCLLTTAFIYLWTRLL
row,Structure (SMILES),displacement [%]
1,COc1cccc(C(=O)NC(NC(=S)Nc2ccc(Cl)cc2Cl)C(Cl)(Cl)Cl)c1 (stereo not drawn),4.2
2,O=C(CSc1nc(O)cc(=O)[nH]1)Nc1ccccc1,15.9
3,COc1ccccc1OCCSc1nc2ccccc2c(=O)[nH]1,0.1
4,CCc1cccc(NC(=O)CC(c2ccccc2)c2ccccc2)c1,5.7
5,N#Cc1cc2c(nc1SCc1ccc(Cl)cc1)CCCC2,4.5
6,O=C(NCc1ccccn1)C(=O)Nc1ccc([N+](=O)[O-])cc1,11.7
7,Cc1ccccc1N(CC(=O)NC(C)(C)C)S(C)(=O)=O,-1.1
8,Cc1ccc(S(=O)(=O)Nc2ccccc2-c2nc3ccccc3c(=O)o2)cc1,-0.8
9,COc1cc(=O)n(C)c2c(OCC(O)C(C)(C)O)cccc12 (stereo not drawn),-5.7
10,Cc1c(Cl)cccc1NCCC(=O)c1ccc([N+](=O)[O-])cc1,-7.6
11,CC(=O)C1=C(O)C(=O)N(CCN(C)C)C1c1ccc([N+](=O)[O-])cc1 (stereo not drawn),-1.6
12,COc1cc2c(cc1OC)C(SC)=NC1(CCCC1)C2,-11.1
13,COc1ccccc1NC(=O)c1cc(=O)[nH]c2ccccc12,-3.9
14,COc1ccc(N(CC(=O)Nc2ccc(C(=O)N3CCOCC3)cc2)S(=O)(=O)c2ccccc2)cc1,15.2
15,COc1cccc(NC(=O)c2ccc(OC)c(Br)c2)c1,2.4
16,CCc1cc(=O)oc2cc(C)cc(OCC(=O)c3ccccc3)c12,13.2
17,COc1cc(NC(=O)c2ccc3ccccc3c2)ccc1NC(=O)c1ccco1,0.4
18,CCCCOc1ccc2c(=O)c(-c3ccccc3OC)coc2c1,7
19,COc1ccccc1C(=O)Nc1nc2ccc(S(C)(=O)=O)cc2s1,-10.1
20,CN(C)C(=O)CN1C(=O)C2CC=C(Cl)CC2C1=O (stereo not drawn),0.8
21,Cc1cc2c(cc1C)NC(c1ccc([N+](=O)[O-])o1)C1=C(CC(C)(C)CC1=O)N2 (stereo not drawn),-2.5
22,CCOC(=O)c1sc(C)c2c(=O)[nH]cnc12,2.8
23,CC(C)(C)c1ccc(C(=O)Nc2ccc(Br)cn2)cc1,-16.9

row,Structure (SMILES),displacement [%]
1,COc1ccccc1C1/C(=C(\O)c2ccc(F)cc2)C(=O)C(=O)N1CCCCCC(=O)O (stereo not drawn),-4.6
2,COc1ccc(CNC(=O)COc2ccc3ccccc3c2)cc1,-22
3,CCCCP(=O)(CCCC)COc1ccc(Br)cc1,18.1
4,CCONC(=NCc1ccccc1)c1nonc1N,9
5,COc1ccc(-c2nc(=S)c3c(n2-c2ccccc2)CCCC3)cc1,7.2
6,O=C(Nc1cc(Cl)cc(Cl)c1)C1COc2ccccc2O1 (stereo not drawn),-3.6
7,O=C(Nc1ccc(Br)cc1)c1nc2nc(-c3ccccc3)cc(C(F)(F)F)n2n1,-9.3
8,NCCCCNc1ccc([N+](=O)[O-])cc1,16.6
9,O=C(c1cccs1)N1CCN(S(=O)(=O)c2ccc(Cl)cc2)CC1,-2.9
10,Cc1ccc(NCCC(=O)c2cccc([N+](=O)[O-])c2)c(C)c1,-13.5
11,Cc1c(NC(=O)c2ccc(Br)o2)cccc1-c1nc2ccccc2s1,7.1
12,COc1ccc(CN2CCN(C3CCN(Cc4ccccc4)CC3)CC2)cc1,-17.8
13,O=C(Nc1nc2ccccc2n1Cc1ccc(Cl)cc1)c1ccccc1,14.7
14,CC(C)c1ccc(/C=C(\NC(=O)c2ccccc2)C(=O)NCCCn2ccnc2)cc1,4.9
15,Cc1cccc(NC(=O)C2CC=CCC2C(=O)O)c1 (stereo not drawn),1.1
16,COc1cc(CN2CCN(S(=O)(=O)c3ccccc3)CC2)cc(OC)c1OC,5
17,COc1ccc(C(=O)N/N=C/c2ccc(N(C)C)cc2)c(OC)c1,-2.6
18,COc1ccc(/C=C(\NC(=O)c2ccc([N+](=O)[O-])cc2)C(=O)NCCCN2CCOCC2)cc1,9.8
19,COc1ccc(/C=C/C(=O)NCc2ccccn2)cc1OC,11.8
20,Cc1cc(C=C2C(=O)NC(=S)NC2=O)c(C)n1-c1ccc(Br)cc1,21
21,CC(=O)Nc1ccc(NS(=O)(=O)c2ccc3ncccc3c2)cc1,2.4
22,CCOc1cc(/C=N/NC(=O)Cc2cccc3ccccc23)cc(I)c1O,1.7
23,C=CCN1C(=O)/C(=C\c2ccc(OC(=O)c3ccc(Cl)cc3Cl)cc2)SC1=S,5.4

row,Structure (SMILES),displacement [%]
1,COc1cccc(C(=O)O/N=C(\N)c2ccccc2)c1,12.2
2,CCCCC1CCC(C(=O)Nc2ncccn2)CC1 (stereo not drawn),0.5
3,CCOC(=O)c1nn(-c2ccccc2)cc1O,-7.7
4,CC1CCCN(C(=O)Cc2ccccc2)C1 (stereo not drawn),-9.7
5,CC(C)C(C(=O)O)N1C(=O)/C(=C/c2ccccc2C(=O)O)SC1=S (stereo not drawn),-8.9
6,CC(=O)NC(C)c1ccc(Cl)c(Cl)c1 (stereo not drawn),5.1
7,COC(=O)c1ccc(C(=O)OC)c(NC(=O)C(C)Oc2ccccc2)c1 (stereo not drawn),12.4
8,COc1ccc(C/C(N)=N/OC(=O)COc2ccc3ccccc3c2)cc1,12.3
9,CN(C)c1ccc(/C=C2\C(=O)NC(=S)N(c3ccc(Br)cc3)C2=O)cc1,12.1
10,CCOc1cc(C=C2C(=O)NC(=O)NC2=O)ccc1OCc1cccc2ccccc12,58.6
11,COC(=O)c1cc(NC(=O)COc2ccc(Br)cc2)cc(C(=O)OC)c1,4.3
12,O=C(Nc1ccc(O)cc1C(=O)O)c1ccc(Cl)c(Cl)c1,5.1
13,Cc1ccc(OCC(=O)Nc2sc3c(c2C#N)CCCC3)cc1C,6.2
14,O=C(Nc1ccccc1)c1ccc(CN2CCN(Cc3ccccc3)CC2)cc1,2.9
15,Cc1ccc2c(c1)c1c(n2CN2CCCCC2)C(=O)CCC1,6.7
16,O=C(c1ccc(N2CCN(C(=O)c3ccccc3F)CC2)cc1)c1cccc(F)c1,-53.4
17,N/C(=N\N=C\c1c[nH]c2ccccc12)c1nonc1N,10.5
18,O=C(Nc1ccc(-c2nc3ncccc3o2)cc1)c1ccc(-c2cccc(Cl)c2)o1,14.3
19,CS(=O)(=O)N(CC(=O)O)c1ccccc1Br,12.6
20,COc1c(C2=CC(=O)N(C)C2=O)c2c(n1C)C(=O)c1ccccc1C2=O,8.7
21,COc1ccc(C(=O)O/N=C(\N)Cc2ccc(Cl)cc2Cl)cc1,-3.5
22,COC(=O)c1sccc1NC(=O)c1sc2ccccc2c1Cl,-5.8
23,CCN(C)c1ccc(C=C2C(=O)NC(=O)NC2=O)cc1,10.1

row,Structure (SMILES),displacement [%]
1,CN(C)c1ccc(CNC(=O)C(O)(c2ccc(F)cc2)c2ccc(F)cc2)cc1,-1.3
2,CCOC(=O)c1sc(N/N=C/c2cccc(O)c2)nc1C,0
3,CC(=O)Cc1cc(O)c2ccccc2c1OC(=O)c1ccccc1,-8.9
4,CCOc1cc([N+](=O)[O-])cc(/C=C2\SC(=S)N(C)C2=O)c1O,1.9
5,CN1C(=O)C(O)(CC(=O)c2ccc(F)cc2)c2ccccc21 (stereo not drawn),8.4
6,O=C(NC1CCCCC1)c1ccc2nc3ccccc3nc2c1,81.5
7,CC(=O)c1ccc(N2C(=O)c3ccc(-c4nc5ccccc5c(=O)o4)cc3C2=O)cc1,8.4
8,CC(=O)N1CCN(c2ccc(NC(=O)c3ccc4c(c3)OCCO4)cc2)CC1,-1.2
9,CCOc1ccc(C2Nc3ccccc3NC3=C2C(=O)CC(c2ccc(OC)cc2)C3)cc1 (stereo not drawn),-13.6
10,CCC(C)NS(=O)(=O)c1ccc(Br)cc1 (stereo not drawn),17.4
11,CCOc1cc(OCC)cc(C(=O)Nc2ccc(Br)cn2)c1,6
12,Cc1ccc(N(Cc2ccc(C(=O)Nc3cccnc3)cc2)S(C)(=O)=O)cc1C,12.5
13,COc1ccc(S(=O)(=O)N2CCN(Cc3ccc(SC)cc3)CC2)cc1,-3.5
14,COc1ccc(CCNC(=O)CSc2cccc3cccnc23)cc1OC,8.5
15,Cc1cc(Cl)ccc1NC(=O)CSCc1cccc(Br)c1,-3.6
16,O=C(NCc1ccccc1)c1ccc(-c2ccc([N+](=O)[O-])cc2)o1,1.6
17,Cc1ccc(NC(=O)CSc2nnnn2-c2ccccc2)c([N+](=O)[O-])c1,12.4
18,Cc1cc(/C=C2\C(=O)NC(=O)N(c3cccc(Cl)c3)C2=O)c(C)n1-c1cccnc1,-3.4
19,CC(C)CC(C1=C(O)CCCC1=O)C1=C(O)CCCC1=O,-5.4
20,CS(=O)(=O)N(Cc1ccc(C(=O)Nc2ccc(CC#N)cc2)cc1)c1ccccc1,-7
21,O=C(NCc1cccnc1)c1cccc(Cl)c1,-3
22,Cc1ccnc(NC(=O)COc2ccc(C)cc2C)c1,-0.6
23,CCOc1ccc2nc(SCc3ccc(OC)cc3)sc2c1,-11

row,Structure (SMILES),displacement [%]
1,CCN(CC)CCOc1c(C)cc(Cl)cc1Cl,0.5
2,CCOC(=O)C(CCCOc1ccc(F)cc1)C(=O)OCC,11.6
3,COc1ccccc1N1CCN(C(=O)c2c(Cl)cccc2Cl)CC1,14
4,CC(C)(C)c1ccccc1OCCCCN1CCOCC1,5.8
5,Fc1ccc(-c2nnc(-c3ccc4c(c3)OCO4)o2)cc1,24.1
6,CCC(=O)CC(O)(c1ccccc1)C(F)(F)C(F)F (stereo not drawn),-13.6
7,CCCCOc1ccc(S(=O)(=O)N=Nc2c(O)n(C)c3ccccc23)cc1,4.5
8,COC(=O)c1c(C)oc2cc(Br)c(OCc3ccc([N+](=O)[O-])cc3)cc12,8.8
9,Cc1ccc(OCC(=O)O/N=C(\N)c2ccccn2)c(Br)c1,5.2
10,CCOC(=O)C1C(=O)C=C(/C=C/c2ccccc2)CC1c1ccc(Cl)cc1 (stereo not drawn),-7.2
11,COc1ccc(-c2nc3cc(NC(=O)c4cccc([N+](=O)[O-])c4C)ccc3o2)cc1Br,-2.1
12,CC(C)C12CN3CC(C(C)C)(CN(C1)C3c1cc(Br)ccc1O)C2=O (stereo not drawn),7.3
13,COC(=O)c1sccc1NC(=O)c1cc(-c2cccs2)nc2ccccc12,60.4
14,O=C(N/N=C\c1ccc(Cl)c(Cl)c1)c1cnccn1,-7.3
15,CN1CCOCCOCCN(C)C1=O,10.6
16,CC1=NN(c2cccc(C(=O)O)c2)C(=O)/C1=C\c1ccc(C)cc1,-9.2
17,CCC12c3ccccc3C(c3ccccc31)C1C(=O)N(c3cc(Cl)ccc3C)C(=O)C12 (stereo not drawn),8.3
18,O=c1[nH]c(N/N=C\c2c(Cl)cccc2Cl)nnc1-c1ccccc1,-19.5
19,CC(C)OCC(O)Cn1c2ccccc2c2ccccc21 (stereo not drawn),-4.5
20,COC(=O)c1cccc(S(=O)(=O)Nc2ccc(C(=O)O)cc2)c1,-1.3
21,CSc1ccccc1NC(=O)Cn1nc([N+](=O)[O-])cc1C,4.9
